We go through four compounds from US8741947B2, “Biologically active macrolides, compositions, and uses thereof” (The United States of America, as represented by the …, priority 2000, dated 2014).

This assay has as its system panel of 60 different human tumor cell lines. The assay is described as follows: NCI 60 cell-line screen, whole panel: mean-graph and COMPARE analysis. The following applies: read-out: Mean-Panel GI50 × 10^−8M (±S.D.); Example 4; quadruplicate, upper concentration limit 10^−6 molar; S.D. in brackets.
Consider `CO/C1=C\C(C)=C\[C@@H](C)[C@@H](O)[C@@H](C)C/C(C)=C/C=C/[C@H](OC)[C@@H]([C@@H](C)[C@@H](O)[C@H](C)[C@@]2(O)C[C@@H](O)[C@H](C)[C@@H](C(C)C)O2)OC1=O` [Bafilomycin A1, bafilomycin A1, reference compound], for which the GI50 (as a rule, the concentration that inhibits growth by half) was determined as 10.2 nM.

As to `C/C=C/[C@H]1O[C@@](O)([C@@H](C)[C@H](O)[C@H](C)[C@H]2OC(=O)/C(OC)=C/C(C)=C/[C@@H](C)[C@@H](O)[C@@H](CC)[C@@H](O)[C@H](C)C/C(C)=C/C=C/[C@@H]2OC)C[C@@H](O[C@H]2C[C@@H](O)[C@H](OC(N)=O)[C@@H](C)O2)[C@@H]1C` [Concanamycin A, concanamycin A, reference compound], the GI50 turned out to be 1.1 nM.

For the compound `CC/C=C\C=C/C(=O)N/C=C/C[C@H]1C[C@@H](O)[C@@H](C)C/C=C/Cc2cccc(O)c2C(=O)O1` [Salicylihalamide A, salicylihalamide A, reference compound], the GI50 is 49.7 nM.

For the compound lobatamide A, the GI50 is 5.6 nM.
